According to PMC6265484, “Homodimerization regulates an endothelial specific signature of the SOX18 transcription factor” (Nucleic Acids Research, 2018):
No constants are given. Whether binding was seen depends on the method and setting. For some assays here: In cells and extracts the contact can be indirect. Some entries that bind do so weakly or less than the wild type. Blank lines part the entries; values can stand above or below the substance they belong to.

Amino acid sequences for entries named in this document (tags omitted). A change or cut given only in a name is not applied to a line headed by its entry. Chains listed by the source or under a name are the forms on record and can include a tag or linker.
UniProt Q9H6I2: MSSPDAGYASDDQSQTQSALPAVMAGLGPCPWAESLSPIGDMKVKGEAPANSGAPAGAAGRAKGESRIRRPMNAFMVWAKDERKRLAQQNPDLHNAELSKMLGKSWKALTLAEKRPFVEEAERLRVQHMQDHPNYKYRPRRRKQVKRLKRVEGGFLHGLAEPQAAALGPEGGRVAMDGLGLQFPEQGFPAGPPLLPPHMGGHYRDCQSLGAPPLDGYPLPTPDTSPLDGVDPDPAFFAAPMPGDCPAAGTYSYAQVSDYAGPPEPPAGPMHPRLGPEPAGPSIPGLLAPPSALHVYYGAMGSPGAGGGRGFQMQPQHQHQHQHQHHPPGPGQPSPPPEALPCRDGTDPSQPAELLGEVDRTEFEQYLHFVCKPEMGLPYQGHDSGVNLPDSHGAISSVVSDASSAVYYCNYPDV
UniProt P35713: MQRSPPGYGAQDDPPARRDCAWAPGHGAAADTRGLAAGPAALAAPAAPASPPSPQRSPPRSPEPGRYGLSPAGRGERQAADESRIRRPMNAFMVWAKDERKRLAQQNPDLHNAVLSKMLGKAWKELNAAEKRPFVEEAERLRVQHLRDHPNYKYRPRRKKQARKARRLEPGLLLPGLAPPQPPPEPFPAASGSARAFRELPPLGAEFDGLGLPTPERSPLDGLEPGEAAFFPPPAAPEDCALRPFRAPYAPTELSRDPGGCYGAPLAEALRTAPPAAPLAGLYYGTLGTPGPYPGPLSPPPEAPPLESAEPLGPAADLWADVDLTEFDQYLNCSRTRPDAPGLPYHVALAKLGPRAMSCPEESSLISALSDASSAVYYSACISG
SOX18 deletion mutant lacking the first hydrophobic motif (Δ161–168) (P35713, form named): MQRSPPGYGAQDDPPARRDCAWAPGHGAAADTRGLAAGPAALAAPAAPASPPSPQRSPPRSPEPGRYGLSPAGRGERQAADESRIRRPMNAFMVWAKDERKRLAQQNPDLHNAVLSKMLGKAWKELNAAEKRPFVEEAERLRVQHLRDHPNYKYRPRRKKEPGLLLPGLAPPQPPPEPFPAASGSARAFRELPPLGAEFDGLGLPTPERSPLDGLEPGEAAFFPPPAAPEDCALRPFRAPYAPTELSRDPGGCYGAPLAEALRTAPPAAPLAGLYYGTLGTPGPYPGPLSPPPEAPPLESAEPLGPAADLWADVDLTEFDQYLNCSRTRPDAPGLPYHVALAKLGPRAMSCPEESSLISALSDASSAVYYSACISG
SOX18DIM/SOX7 swap construct (P35713, form named): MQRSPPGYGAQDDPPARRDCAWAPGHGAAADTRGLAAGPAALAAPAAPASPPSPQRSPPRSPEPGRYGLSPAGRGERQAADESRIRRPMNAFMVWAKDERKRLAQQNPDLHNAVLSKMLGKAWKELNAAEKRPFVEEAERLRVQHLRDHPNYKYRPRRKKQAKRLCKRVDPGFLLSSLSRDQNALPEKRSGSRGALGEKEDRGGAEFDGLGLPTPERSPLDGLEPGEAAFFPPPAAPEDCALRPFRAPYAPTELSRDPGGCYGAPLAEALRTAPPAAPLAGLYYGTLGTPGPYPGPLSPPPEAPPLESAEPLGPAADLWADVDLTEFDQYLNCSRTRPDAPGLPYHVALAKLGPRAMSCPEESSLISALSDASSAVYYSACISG
SOX18 deletion mutant that lacks the FRELPPL motif (Δ197–203) (P35713, form named): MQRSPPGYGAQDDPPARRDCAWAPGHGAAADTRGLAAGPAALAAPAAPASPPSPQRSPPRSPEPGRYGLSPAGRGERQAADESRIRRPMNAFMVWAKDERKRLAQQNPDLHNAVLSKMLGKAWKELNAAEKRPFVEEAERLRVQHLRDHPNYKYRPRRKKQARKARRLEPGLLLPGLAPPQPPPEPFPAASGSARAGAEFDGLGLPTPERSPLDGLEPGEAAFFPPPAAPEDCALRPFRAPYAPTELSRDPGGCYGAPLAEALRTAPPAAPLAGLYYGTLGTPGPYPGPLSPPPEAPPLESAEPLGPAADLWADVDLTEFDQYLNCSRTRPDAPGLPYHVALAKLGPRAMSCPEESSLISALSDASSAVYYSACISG
UniProt P48436: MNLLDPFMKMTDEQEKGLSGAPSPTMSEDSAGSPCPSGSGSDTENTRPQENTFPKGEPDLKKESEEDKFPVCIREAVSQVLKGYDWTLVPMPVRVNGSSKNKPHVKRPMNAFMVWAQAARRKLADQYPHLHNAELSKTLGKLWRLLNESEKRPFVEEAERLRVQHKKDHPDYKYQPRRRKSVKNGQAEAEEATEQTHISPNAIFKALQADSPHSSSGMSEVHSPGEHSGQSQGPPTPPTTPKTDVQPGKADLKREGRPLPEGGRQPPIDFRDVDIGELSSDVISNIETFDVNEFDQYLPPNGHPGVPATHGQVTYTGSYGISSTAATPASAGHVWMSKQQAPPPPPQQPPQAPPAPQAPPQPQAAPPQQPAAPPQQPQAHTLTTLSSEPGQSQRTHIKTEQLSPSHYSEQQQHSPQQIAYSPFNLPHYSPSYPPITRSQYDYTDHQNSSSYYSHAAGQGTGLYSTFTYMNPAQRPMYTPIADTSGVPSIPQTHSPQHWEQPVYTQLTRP
UniProt Q9BT81: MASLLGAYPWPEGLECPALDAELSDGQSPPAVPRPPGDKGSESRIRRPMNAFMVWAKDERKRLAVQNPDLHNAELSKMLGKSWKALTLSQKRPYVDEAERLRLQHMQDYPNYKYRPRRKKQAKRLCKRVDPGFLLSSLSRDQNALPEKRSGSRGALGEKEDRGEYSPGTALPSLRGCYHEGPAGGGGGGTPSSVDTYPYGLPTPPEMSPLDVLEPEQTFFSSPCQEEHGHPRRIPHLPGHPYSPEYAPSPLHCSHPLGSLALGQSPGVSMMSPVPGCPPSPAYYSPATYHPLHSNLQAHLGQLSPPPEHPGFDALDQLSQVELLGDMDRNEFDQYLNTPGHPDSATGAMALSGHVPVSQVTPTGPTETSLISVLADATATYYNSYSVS
SOX7DIM/SOX18 swap construct (Q9BT81, form named): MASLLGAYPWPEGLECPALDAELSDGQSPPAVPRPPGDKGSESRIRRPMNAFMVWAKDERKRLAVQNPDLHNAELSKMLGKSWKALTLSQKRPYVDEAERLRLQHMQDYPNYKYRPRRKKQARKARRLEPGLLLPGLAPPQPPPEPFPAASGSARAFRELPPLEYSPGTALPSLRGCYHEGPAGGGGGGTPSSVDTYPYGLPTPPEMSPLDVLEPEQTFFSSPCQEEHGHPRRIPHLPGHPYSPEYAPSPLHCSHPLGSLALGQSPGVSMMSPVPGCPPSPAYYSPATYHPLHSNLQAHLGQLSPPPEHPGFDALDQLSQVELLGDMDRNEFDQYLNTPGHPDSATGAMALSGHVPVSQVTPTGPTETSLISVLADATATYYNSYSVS
UniProt P23769: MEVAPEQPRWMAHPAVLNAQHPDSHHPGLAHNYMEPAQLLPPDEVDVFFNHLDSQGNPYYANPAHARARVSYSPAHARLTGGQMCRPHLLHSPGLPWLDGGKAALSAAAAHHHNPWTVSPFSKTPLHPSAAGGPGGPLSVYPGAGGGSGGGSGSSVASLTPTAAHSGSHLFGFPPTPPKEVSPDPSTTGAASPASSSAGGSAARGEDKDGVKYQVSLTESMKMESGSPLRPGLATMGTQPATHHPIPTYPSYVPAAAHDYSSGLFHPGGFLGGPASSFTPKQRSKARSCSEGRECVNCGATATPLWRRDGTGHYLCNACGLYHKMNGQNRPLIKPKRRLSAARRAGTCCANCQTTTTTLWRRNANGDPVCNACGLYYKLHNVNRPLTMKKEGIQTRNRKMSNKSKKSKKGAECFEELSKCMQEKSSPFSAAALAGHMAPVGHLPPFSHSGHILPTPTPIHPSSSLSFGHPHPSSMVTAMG
UniProt Q06413: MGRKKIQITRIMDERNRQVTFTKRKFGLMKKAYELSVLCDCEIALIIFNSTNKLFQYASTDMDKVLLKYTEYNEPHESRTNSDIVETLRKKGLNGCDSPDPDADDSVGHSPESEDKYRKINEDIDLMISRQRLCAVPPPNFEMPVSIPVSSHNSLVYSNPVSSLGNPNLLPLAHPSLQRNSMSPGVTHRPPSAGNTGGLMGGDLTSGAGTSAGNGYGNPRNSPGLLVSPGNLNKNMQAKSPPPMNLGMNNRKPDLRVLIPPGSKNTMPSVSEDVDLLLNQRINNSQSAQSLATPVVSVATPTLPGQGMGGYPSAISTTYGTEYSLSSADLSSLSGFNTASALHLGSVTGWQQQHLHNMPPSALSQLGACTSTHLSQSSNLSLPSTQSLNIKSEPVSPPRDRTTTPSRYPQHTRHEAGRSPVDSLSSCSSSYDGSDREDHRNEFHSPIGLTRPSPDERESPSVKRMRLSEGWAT
UniProt Q06330: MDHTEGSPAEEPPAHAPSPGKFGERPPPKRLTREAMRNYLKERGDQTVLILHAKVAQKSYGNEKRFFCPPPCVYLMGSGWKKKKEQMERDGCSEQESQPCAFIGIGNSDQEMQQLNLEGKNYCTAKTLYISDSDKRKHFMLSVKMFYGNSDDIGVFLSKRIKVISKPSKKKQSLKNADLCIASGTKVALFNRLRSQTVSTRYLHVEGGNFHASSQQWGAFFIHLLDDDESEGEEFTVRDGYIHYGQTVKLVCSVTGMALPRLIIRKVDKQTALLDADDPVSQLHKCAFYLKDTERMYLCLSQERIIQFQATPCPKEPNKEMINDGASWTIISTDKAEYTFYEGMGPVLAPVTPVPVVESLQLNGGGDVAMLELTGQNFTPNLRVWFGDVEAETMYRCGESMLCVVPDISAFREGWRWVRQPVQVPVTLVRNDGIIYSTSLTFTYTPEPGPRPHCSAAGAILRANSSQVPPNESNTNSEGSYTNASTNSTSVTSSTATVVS

Columns and labels:
[1] = biological target: full-length SOX17 (human) (UniProt Q9H6I2); experiment: single-molecule two-colour coincidence fluorescence spectroscopy; GFP- and Cherry-tagged proteins made in LTE, diluted to about 100 pM, confocal detection with 488 and 561 nm lasers, room temperature; coincidence ratio C = mCherry/(GFP + mCherry)
[2] = biological target: full-length SOX17 (human) (UniProt Q9H6I2); experiment: AlphaScreen or HTRF; LTE lysate co-expressing a GFP-tagged and a Cherry-cMyc-tagged protein, diluted in 25 mM HEPES, 50 mM NaCl; anti-cMyc acceptor beads, biotin-labelled GFP-Nanotrap and streptavidin donor beads; room temperature; no enrichment or purification
[3] = biological target: SOX18 homodimer BiFC reporter (NmVENUS155-SOX18S and CmVENUS155-SOX18S) (UniProt P35713); experiment: split reporter; mVENUS split at amino acid 155; mRNAs of the two halves co-injected into single-cell zebrafish embryos, live confocal imaging at 4-5 hpf
[4] = biological target: SOX9 (UniProt P48436); experiment: AlphaScreen or HTRF; LTE lysate co-expressing a GFP-tagged and a Cherry-cMyc-tagged protein, diluted in 25 mM HEPES, 50 mM NaCl; anti-cMyc acceptor beads, biotin-labelled GFP-Nanotrap and streptavidin donor beads; room temperature; no enrichment or purification
[5] = biological target: SOX7DIM/SOX18 swap construct (human) (UniProt Q9BT81); experiment: single-molecule two-colour coincidence fluorescence spectroscopy; GFP- and Cherry-tagged proteins made in LTE, diluted to about 100 pM, confocal detection with 488 and 561 nm lasers, room temperature; coincidence ratio C = mCherry/(GFP + mCherry)
[6] = biological target: SOX7DIM/SOX18 swap construct (human) (UniProt Q9BT81); experiment: AlphaScreen or HTRF; LTE lysate co-expressing a GFP-tagged and a Cherry-cMyc-tagged protein, diluted in 25 mM HEPES, 50 mM NaCl; anti-cMyc acceptor beads, biotin-labelled GFP-Nanotrap and streptavidin donor beads; room temperature; no enrichment or purification
[7] = biological target: full-length human SOX18 (human) (UniProt P35713); experiment: condition: only with >5 μM DNA harbouring a single consensus SOX binding motif; AlphaScreen or HTRF; as the AlphaScreen of LTE lysates, with rising concentrations of DNA harbouring a single consensus SOX binding motif
[8] = biological target: human GATA2 (human) (UniProt P23769); experiment: AlphaScreen or HTRF; LTE lysate co-expressing a GFP-tagged and a Cherry-cMyc-tagged protein, diluted in 25 mM HEPES, 50 mM NaCl; anti-cMyc acceptor beads, biotin-labelled GFP-Nanotrap and streptavidin donor beads; room temperature; no enrichment or purification
[9] = biological target: full-length human SOX18 (human) (UniProt P35713); experiment: as above
[10] = biological target: human MEF2C (human) (UniProt Q06413); experiment: as above
[11] = biological target: human RBPJ (human) (UniProt Q06330); experiment: as above
[12] = biological target: SOX18DIM/SOX7 swap construct (human) (UniProt P35713); experiment: single-molecule two-colour coincidence fluorescence spectroscopy; GFP- and Cherry-tagged proteins made in LTE, diluted to about 100 pM, confocal detection with 488 and 561 nm lasers, room temperature; coincidence ratio C = mCherry/(GFP + mCherry)
[13] = biological target: SOX18DIM/SOX7 swap construct (human) (UniProt P35713); experiment: AlphaScreen or HTRF; LTE lysate co-expressing a GFP-tagged and a Cherry-cMyc-tagged protein, diluted in 25 mM HEPES, 50 mM NaCl; anti-cMyc acceptor beads, biotin-labelled GFP-Nanotrap and streptavidin donor beads; room temperature; no enrichment or purification
[14] = biological target: full-length SOX7 (human) (UniProt Q9BT81); experiment: single-molecule two-colour coincidence fluorescence spectroscopy; GFP- and Cherry-tagged proteins made in LTE, diluted to about 100 pM, confocal detection with 488 and 561 nm lasers, room temperature; coincidence ratio C = mCherry/(GFP + mCherry)
[15] = biological target: full-length SOX7 (human) (UniProt Q9BT81); experiment: AlphaScreen or HTRF; LTE lysate co-expressing a GFP-tagged and a Cherry-cMyc-tagged protein, diluted in 25 mM HEPES, 50 mM NaCl; anti-cMyc acceptor beads, biotin-labelled GFP-Nanotrap and streptavidin donor beads; room temperature; no enrichment or purification

- binding [4]: binds
Substance: SOX9 (from UniProt P48436 1-509)

- binding [6]: binds
Substance: SOX7DIM/SOX18 swap construct (from UniProt Q9BT81 1-113; Q9BT81 164-388)
- binding [5]: binds

- binding [7]: no binding
- binding [8]: no binding
- binding [9]: binds
- binding [10]: binds
- binding [11]: binds
Substance: full-length human SOX18 (from UniProt P35713 1-384)

Continued, substance first:

Substance: full-length SOX17 (from UniProt Q9H6I2 1-414)
- binding [1]: no binding
- binding [2]: no binding

Substance: SOX18 homodimer BiFC reporter (NmVENUS155-SOX18S and CmVENUS155-SOX18S) (from UniProt P35713 1-384)
- binding [3]: binds

Substance: SOX18 deletion mutant lacking the first hydrophobic motif (Δ161–168) (from UniProt P35713 1-384)
- binding [9]: binds

Substance: SOX18DIM/SOX7 swap construct (from UniProt P35713 1-153; P35713 204-384)
- binding [12]: no binding
- binding [13]: no binding

Substance: full-length SOX7 (from UniProt Q9BT81 1-388)
- binding [14]: no binding
- binding [15]: no binding

Substance: SOX18 deletion mutant that lacks the FRELPPL motif (Δ197–203) (from UniProt P35713 1-384)
- binding [9]: no binding
